# About 800 (1.6%) of roughly 50,000 compounds showed an effect of 50% or more. The list shows a part of the results.
# Target: Bcl-2-like protein 10 (Homo sapiens) (UniProt Q9HD36)
# Test: Phenotype converters, Bcl-B/TR3 peptide binding displacement, primary biochemical FP (AID 1240);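 further: 0% = Bcl-B with tracer peptide and DMSO and 100% = tracer peptide lacking Bcl-B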
# Settings: GST-Bcl-B / FITC-TR3 peptide fluorescence polarization; stronger effect = higher value; compound at 3.75 mg/L
# UniProt Q9HD36, sequence (Q9HD36 whole entry, looked up): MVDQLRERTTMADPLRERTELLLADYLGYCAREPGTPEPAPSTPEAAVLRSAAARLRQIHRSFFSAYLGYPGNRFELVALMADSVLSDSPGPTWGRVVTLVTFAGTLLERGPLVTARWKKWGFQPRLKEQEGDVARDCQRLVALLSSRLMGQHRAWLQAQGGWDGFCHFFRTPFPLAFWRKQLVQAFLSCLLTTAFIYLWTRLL
row,SMILES,displacement [%]
1,COC(=O)c1c(-c2ccc(OC)cc2)csc1N,5.7
2,COC(=O)c1cn(C(=O)OC)c2ccccc12,11.6
3,CCOC(=O)c1c(N2C(=O)C3CC(C)=C(C)CC3C2=O)sc(C)c1C (centres undefined),-10.4
4,COC(=O)C1C(=O)N(C)C(c2ccccc2)C1C(=O)OC (centres undefined),8.4
5,COc1cc(Br)cc(/C=N/NC(=O)Cn2c3ccccc3c(=O)c3ccccc32)c1O,-2.8
6,COC(=O)c1cc(NS(=O)(=O)c2c(C)cc(C)cc2C)cc(C(=O)OC)c1,12.3
7,Cc1ccc(C(C)C)c(OCC(=O)Nc2ccc(Cl)cn2)c1,-2.4
8,Cc1ccc(O)c(NC(=O)c2ccc(-c3ccccc3)cc2)c1,12.4
9,COc1cc(/C=C2/SC(=S)N(CC(=O)N3CCOCC3)C2=O)cc(OC)c1OC,13.2
10,CCN(CC)c1ccc(NC(=O)c2cc(Br)ccc2OC)cc1,18.5
11,CC(Oc1ccc(Cl)cc1)C(=O)NN (centres undefined),8.9
12,O=C(c1cccc([N+](=O)[O-])c1)N1N=C(c2ccccc2)CC1(O)C(F)(F)F (centres undefined),16.2
13,Cc1ccc(/C=C(/NC(=O)c2ccccc2I)C(=O)O)o1,8.2
14,O=[N+]([O-])c1cc(C(F)(F)F)ccc1Sc1nnnn1-c1ccccc1,-6
15,Cc1ccc(-c2cc(C(F)(F)F)n3ncc(C(=O)N4CCN(c5ccc(F)cc5)CC4)c3n2)cc1,11.4
16,Cc1nnc(N/N=C\c2ccc(C(F)(F)F)cc2)[nH]c1=O,-8.3
17,Cc1cc(Cl)ccc1OCC(=O)Nc1cc(-c2nc3ccccc3o2)ccc1Cl,8.9
18,CC(C)(CO)N=C1NS(=O)(=O)c2ccccc21,12.1
19,CCOc1ccc(C(=O)Nc2ccc(O)c(-c3nc4ccccc4s3)c2)cc1Cl,6.3
20,COc1ccc(C2SCC(=O)N2CCc2ccc(OC)c(OC)c2)c(OC)c1 (centres undefined),-6.4
21,C=CCNC(=O)C(=O)NC1CCCCC1,17.8
22,CCOC(=O)c1c(NC(=O)CC2Nc3ccccc3NC2=O)sc2c1CCCC2 (centres undefined),130
23,COc1cc(Br)c(-c2cc3c(ccc4ccccc43)oc2=O)cc1OC,0
24,O=C(Nc1ccccc1O)c1cc(Cl)ccc1Cl,-5.3
25,Cc1cc(C)n(-c2cc(NCc3ccccc3)nc(-c3ccccc3)n2)n1,-0.3
26,CCOC(=O)C1=C(C)N=c2s/c(=C\c3ccc(-c4ccc([N+](=O)[O-])cc4)o3)c(=O)n2C1c1ccc2c(c1)OCO2 (centres undefined),-13.9
27,COc1ccc(Br)cc1/C=C/C(=O)Nc1ccc(-c2nc3ncccc3o2)cc1,-4.5
28,CCOC(=O)C1=C(C)N=c2s/c(=C\c3ccc4c(c3)OCO4)c(=O)n2C1/C=C/c1ccccc1 (centres undefined),0.9
29,CCOc1ccc(C2(Cc3ccccc3)C(=O)c3ccccc3C2=O)cc1,15.4

# Source: PubChem BioAssay AID1240 (Sanford-Burnham Center for Chemical Genomics, 2008)
